# Assay results as given in article PMC4336329 (PLoS ONE, 2015).
# About 2,200 (0.71%) of roughly 310,000 compounds showed an effect of 50% or more. The effect is printed as a negative number. This is one part of the list.
# Target: human ether-à-go-go-related gene (hERG) potassium channel (human, UniProt Q12809)
# Assay: primary screen, population patch clamp on CHO cells stably expressing hERG
# Sequence of human ether-à-go-go-related gene (hERG) potassium channel (Q12809 whole entry, looked up): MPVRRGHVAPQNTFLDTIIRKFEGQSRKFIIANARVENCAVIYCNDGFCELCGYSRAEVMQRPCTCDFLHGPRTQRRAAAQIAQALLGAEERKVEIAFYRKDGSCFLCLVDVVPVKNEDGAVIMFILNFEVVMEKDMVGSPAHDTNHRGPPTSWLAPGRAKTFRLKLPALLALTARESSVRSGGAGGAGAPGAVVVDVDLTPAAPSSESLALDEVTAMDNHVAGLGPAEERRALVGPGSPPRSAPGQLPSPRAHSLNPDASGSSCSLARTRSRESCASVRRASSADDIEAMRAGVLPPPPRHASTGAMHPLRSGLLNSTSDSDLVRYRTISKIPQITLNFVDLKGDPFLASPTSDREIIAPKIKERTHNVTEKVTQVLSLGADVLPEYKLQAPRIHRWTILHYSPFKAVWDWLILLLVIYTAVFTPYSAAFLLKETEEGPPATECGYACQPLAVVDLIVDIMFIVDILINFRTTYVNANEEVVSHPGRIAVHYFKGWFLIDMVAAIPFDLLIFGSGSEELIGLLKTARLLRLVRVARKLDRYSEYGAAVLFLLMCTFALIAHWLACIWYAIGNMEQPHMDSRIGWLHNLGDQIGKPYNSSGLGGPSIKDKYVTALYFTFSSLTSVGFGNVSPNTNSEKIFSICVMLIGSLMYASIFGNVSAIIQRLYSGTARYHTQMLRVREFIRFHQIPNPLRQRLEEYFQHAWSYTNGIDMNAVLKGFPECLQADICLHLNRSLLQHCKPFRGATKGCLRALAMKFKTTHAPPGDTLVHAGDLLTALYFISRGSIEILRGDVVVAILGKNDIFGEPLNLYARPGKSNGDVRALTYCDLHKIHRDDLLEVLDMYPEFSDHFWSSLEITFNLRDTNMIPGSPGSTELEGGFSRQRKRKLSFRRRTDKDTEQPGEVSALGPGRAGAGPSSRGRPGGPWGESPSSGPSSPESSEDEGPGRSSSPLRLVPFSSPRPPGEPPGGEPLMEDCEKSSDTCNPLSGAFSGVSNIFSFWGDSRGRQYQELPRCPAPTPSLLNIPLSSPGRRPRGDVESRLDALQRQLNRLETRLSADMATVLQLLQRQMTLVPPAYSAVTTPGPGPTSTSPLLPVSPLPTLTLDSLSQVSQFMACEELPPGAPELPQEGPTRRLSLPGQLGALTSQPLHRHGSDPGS
row,SMILES,"hERG current change (%, negative = inhibition) at 1uM [%]"
1,COc1ccc(C(=O)NC(=S)Nc2cccc3ncccc23)cc1[N+](=O)[O-],11
2,N#C/C(=C\c1ccc(F)c(Br)c1)C(=O)NC1CC1,-6.48
3,CCCc1nnc(SCC(=O)N2CCOCC2)n1Cc1ccco1,13.2
4,CC1(C)CC(NC(=O)c2cc(S(=O)(=O)N3CCOCC3)c(Cl)cc2Cl)CC(C)(C)N1,10
5,Cc1ccc(CCNC(=O)c2coc3nc4ccccc4nc23)cc1,4.28
6,CC(NC(=O)CCC1COc2ccccc2O1)c1ccccc1 (centres unmarked),8.36
7,N#Cc1ccc(Cn2c(=O)oc3ccccc32)cc1,-1.74
8,CC1C/C(=N/N2C(=O)CSC2=S)CC(C)(C)C1 (centres unmarked),11.1
9,NC(=O)c1cc(S(=O)(=O)N2CCc3ccccc3C2)cs1,14.5
10,CCOCCCn1c(SCC(=O)Nc2ccccc2)nc2ccccc2c1=O,-1.48
11,CCCC(CCC)=NNc1ccc(S(=O)(=O)Nc2ccccc2OC)cc1[N+](=O)[O-],9.54
12,Cc1cc(=O)oc2cc(OCC(=O)N/N=C/c3cc([N+](=O)[O-])ccc3O)ccc12,10.5
13,COc1ccc(C(=O)N2CCC3(CC2)NCCc2[nH]cnc23)cc1OC,18.1
14,CCCCOc1ccc(C(=O)OC(C)CN(C)C)cc1.Cl (centres unmarked),3.71
15,CCOC(=O)C(CC)/C(C)=N\NC(=O)c1ccccc1O (centres unmarked),8.39
16,Cc1cc(OCCn2cnc3ccccc3c2=O)ccc1[N+](=O)[O-],0.46
17,O=C(NCc1cccnc1)C(=O)NCC(c1ccco1)N1CCN(c2ccccc2)CC1 (centres unmarked),-6.85
18,O=C(Nc1ccccc1)[C@@H]1[C@@H]2C(=O)N(c3ccc(F)cc3)C(=O)[C@@H]2[C@H]2C=CC=NN21,16.4
19,CSc1nncn1/N=C/c1ccc2c(c1)OCO2,17.1
20,COc1ccc(N2C(=O)CSC23CCCCC3)cc1,14.4
21,Cc1ccc(/C=N/NC(=O)c2ccccc2OCc2ccc(F)cc2)o1,-2.78
22,C=CCn1c(-c2cc(-c3ccc(C)cc3)nc3ccccc23)n[nH]c1=S,13.1
23,Cc1nc2ccc(Br)cc2c(=O)n1-c1ccc([N+](=O)[O-])c(C(F)(F)F)c1,8.09

row,SMILES,"hERG current change (%, negative = inhibition) at 1uM [%]"
1,O=C(NC1CCCCC1)C1CC(O)CN1C(=O)OCc1ccccc1 (centres unmarked),1.04
2,O=C(CN(Cc1ccccc1)C(=O)CCC(=O)Nc1ccccn1)NCc1ccco1,3.01
3,COc1ccc(C2/C=C\CN(S(=O)(=O)c3ccc(C)cc3)CC(=O)N2Cc2ccc(F)cc2)cc1 (centres unmarked),7.16
4,Cc1ccc(C)c(S(=O)(=O)N2CCCC2CNC(=O)C(=O)NC2CCCCCC2)c1 (centres unmarked),8.42
5,Cc1ccc(-c2noc(CSc3nc(N)cc(N)n3)n2)cc1,-3.51
6,CCCCOC(=O)n1c(SCC(=O)N(CC)CC)nc2ccccc21,-4.13
7,Cc1oc(-c2ccc(Cl)cc2)nc1CS(=O)CC(=O)NCCCN1CCN(Cc2ccccc2)CC1 (centres unmarked),-12.8
8,Cc1nc(C)n(C(=O)N(c2ccccc2)c2ccccc2)n1,4.25
9,CC(=O)C(Sc1ncnc2sc3c(c12)CCCC3)C(C)=O,24
10,CSc1ccc(/C=N/NC(=O)C[n+]2ccccc2)cc1.[Cl-],8.52
11,CC1CC(C)CN(CC(=O)N2c3ccccc3CCc3ccccc32)C1.O=C(O)C(=O)O (centres unmarked),11.6
12,CC(=O)Nc1ccc(NC(=O)C(C)OC(=O)CCc2c[nH]c3ccccc23)cc1 (centres unmarked),5.26
13,Cc1ccc(C(=O)COC(=O)COc2ccc(C)c(C)c2)cc1,8.02
14,COc1ccc(-c2onc(C)c2-c2ccc(C(=O)OC(C)C)o2)c(O)c1,1.81
15,CC1CCN(CC(=O)NCCc2ccc(F)cc2)CC1.O=C(O)C(=O)O,10.2
16,CC(C)c1ccc(N(C(=O)c2snc(C(N)=O)c2N)C(C(=O)NC2CCCC2)c2ccncc2)cc1 (centres unmarked),12.5
17,CC(C)Oc1nnnn1-c1ccccc1,6.64
18,NC(=O)c1nn(-c2ccccc2)c(=O)cc1O,-5.52
19,Cc1ccc(-c2nn(-c3ccccn3)c(=O)c3ccccc23)cc1,6.16
20,COc1cc(/C=N/n2cnnc2)ccc1OCc1ccccc1,18.4
21,COC(=O)CCC(=O)N1CCCC(C(=O)c2ccc(Cl)cc2C)C1 (centres unmarked),1
22,CC(=O)Nc1ccc(C(=O)N2CCCc3ccccc32)cc1,4.52
23,NC(=S)N/N=C/c1cccc(/C=N/NC(N)=S)c1,11.7

row,SMILES,"hERG current change (%, negative = inhibition) at 1uM [%]"
1,CCc1noc(C)c1C(=O)N(CCC(C)C)c1c(N)n(Cc2ccccc2)c(=O)[nH]c1=O,-8.9
2,Cc1cc(C)n2nc(C(=O)OCC(=O)NC3CCCCC3)nc2n1,13.7
3,Cc1nc(/C=C/c2ccccc2)[nH]c(=O)c1-c1ccccc1,15.9
4,COc1cc(OC)c(C(=O)Nc2cc(Cl)ccc2-n2cncn2)cc1OC,-16.5
5,CC1CCCC(NC(=S)Nc2ccc(SC(F)F)cc2)C1C (centres unmarked),-0.956
6,Cc1ccc(C(=O)NC2CCCCNC2=O)cc1C (centres unmarked),12.8
7,Cc1ccc(C(=O)Nc2ccccc2C(=O)NCC2CCCO2)cc1 (centres unmarked),1.56
8,COCCN(Cc1nnc(-c2cccs2)o1)C(=O)c1cccc(S(=O)(=O)N2CCOCC2)c1,6.12
9,COC(=O)C1=C(C)Nc2ncnn2C1c1ccc(OC(=O)c2ccccc2)cc1 (centres unmarked),8.82
10,Nc1cc(C(=O)OCC(=O)N2CCC(Cc3ccccc3)CC2)ccc1Cl,-1.43
11,COC(=O)c1ccc(NC(=O)CN2CCN(CCO)CC2)cc1.Cl,-0.87
12,CC(NC(=O)COC(=O)C1CCN(c2ccc(C(F)(F)F)cn2)CC1)c1ccc(F)cc1 (centres unmarked),14.2
13,O=C(Nc1nnc(SCC(=O)N2CCOCC2)s1)C1CC(=O)N(c2ccccc2)C1 (centres unmarked),22.6
14,Cc1noc(NS(=O)(=O)c2ccc(NC(=O)CC34CC5CC(CC(Br)(C5)C3)C4)cc2)c1C,15.2
15,CC(C)(C)C(=O)Nc1cc2c3c(c1)CCN3C(=O)CC2,15.1
16,COc1ccc(-c2nc3ccccn3c2/N=C/c2ccc(OC)c(OC)c2)cc1O,-42.7
17,CCOc1ccc(NCc2nc3ccccc3n2CCOc2ccccc2)cc1,5.34
18,Cl.NCc1cc2c3c(c1)CCCN3CCC2,15.4
19,O=c1c2ccccc2nc(/C=C/c2ccc3c(c2)OCO3)n1-c1ccccc1,3.51
20,FC(F)(F)c1cccc(N2CCN(C(=S)NC3CCCC3)CC2)c1,12.5
21,CCCC(NS(=O)(=O)c1ccc(-c2ccc(=O)[nH]n2)s1)c1cccs1 (centres unmarked),5.65
22,COCCNC(=O)CSc1nc2cc3c(cc2c(=O)n1Cc1ccco1)OCO3,-10.3
23,Nc1ccccc1S(=O)(=O)c1ccccc1N,15.2

row,SMILES,"hERG current change (%, negative = inhibition) at 1uM [%]"
1,CCOC(=O)N1CCC(NC(=O)c2cccnc2SC)CC1,19.7
2,CCOc1ccc(S(=O)(=O)N(CC(=O)Nc2cc(C)on2)Cc2ccccc2Cl)cc1,9.6
3,O=[N+]([O-])c1cc([N+](=O)[O-])c(Oc2cc(F)cc(F)c2)cc1NN1CCCCC1,18.3
4,Cc1cccc(NC(=O)c2ccc(NS(=O)(=O)c3c(C)noc3C)cc2)c1,-17.2
5,COc1ccccc1CCN=C(N)NS(=O)(=O)c1ccccc1F,4.21
6,Nc1nonc1-n1nnc(C(=O)N/N=C/c2ccc(Br)cc2)c1CN1CCOCC1,8.62
7,COc1ccc(C=O)cc1Cn1cnc2c(cnn2C)c1=O,4.7
8,Cc1nn(CC(=O)N2CCOCC2)c(C)c1[N+](=O)[O-],4.38
9,O=C(NC(N1CCOCC1)C(Cl)(Cl)Cl)c1ccc(F)cc1 (centres unmarked),9.45
10,O=C(CS(=O)Cc1ccccc1Cl)Nc1ccccc1Cl (centres unmarked),15.5
11,Cn1ncc2c(O/N=C(\N)c3ccc(C(C)(C)C)cc3)ncnc21,11.6
12,CCCN(CCC)Cc1cc(=O)oc2cc3c(cc12)CCC3,11.4
13,CCCCCCOc1ccc(/C(C)=N/NC2=NCCN2)cc1[N+](=O)[O-],-49.4
14,Cc1c(NC(=O)Nc2ccc(Cl)cc2Cl)c(=O)n(-c2ccccc2)n1C,5.54
15,CCOC(=O)c1[nH]c2ccccc2c1NC(=O)C1CCCCC1,18.7
16,Cc1nc2c(Cl)c(C)nn2c2c1CCC2,-2.28
17,CC(C(=O)N1CCCCCC1)c1ccc([N+](=O)[O-])cc1 (centres unmarked),4.63
18,CCCn1c(C(CO)Nc2nc(C)cs2)nc2ccccc21 (centres unmarked),2.93
19,CCC(C)[C@H](NC(=O)[C@H](Cc1ccccc1)n1c(=O)[nH]c2ccccc2c1=O)C(=O)N1CCC[C@@H]1C(=O)O (some centres unmarked),11.4
20,O=C(Nc1cc(C(F)(F)F)ccc1N1CCOCC1)c1cccnc1Cl,6.31
